# Laboratory results as given in PubChem BioAssay AID463173 (ICCB-Longwood Screening Facility, Harvard Medical School, 2010).
# In all, about 52,000 compounds went through this assay and about 4,300 (8.3%) were called active. No stated cut-off is given here; in the data, active means survival mostly below about 52% (no sharp cut-off); inactive means mostly above about 56%. The list shows a part of the results.
# System: DeltatarO mutant
# Assay: S. aureus survival, RN4220 and DeltatarO strains – OD600, teichoic acid synthesis inhibitors, primary screen (AID 463173)
# Settings: S. aureus RN4220 wild type/DeltatarO growth, OD600, 18 h, hits give low values, screened at 18.75 µg/mL (by protocol)
row,Compound,survival
1,Cc1nnc(NC(=O)CSCc2cc(=O)c3cc(Cl)ccc3[nH]2)s1,inactive: 89%
2,O=S(=O)(NCc1ccc(F)cc1)c1ccc(-c2cnc(C3CC3)o2)cc1,inactive: 95%
3,Cc1ccc(C(=O)c2cn(CC(=O)NC3CCCCC3)c3nc(C)ccc3c2=O)cc1,inactive: 93%
4,O=C(O)CC(C(=O)O)c1cn(Cc2ccccc2)c2ccccc12 (stereo unspecified),inactive: 83%
5,COc1cccc(C(=O)Nc2ccccc2C(=O)OCc2cc(=O)n3nc(C4CC4)sc3n2)c1,inactive: 65%
6,Cc1c(C(=O)N2CCCC2)oc2c1-c1nn(CC(=O)NCCCOC(C)C)cc1CC2,inactive: 82%
7,CCOC(=O)C1CCN(C(=O)c2ccccc2N(C)S(C)(=O)=O)CC1,inactive: 107%
8,COc1ccc(-c2nc3c4ccccc4n(CC(=O)N4CCN(c5ccccc5OC)CC4)c(=O)n3n2)cc1,inactive: 87%
9,CCN(CC)CCCNC(=O)CN1C(=O)CCn2nc(-c3cn(C)c4ccccc34)cc21,inactive: 87%
10,COc1ccc(CCNC(=O)c2ccc3c(c2)c(C)c(C)n3Cc2ccc(F)cc2)c(OC)c1OC,inactive: 77%
11,COc1ccc(-c2nc(CSCC(=O)N3CCN(c4cccc(C)c4C)CC3)c(C)o2)cc1OC,inactive: 49%
12,COc1cccc(-n2c(=O)c3c4c(sc3n(Cc3ccc(C)cc3)c2=O)CCCC4)c1,inactive: 65%
13,Cc1ccccc1-c1nc(SCC(=O)NCc2ccco2)c2c(=O)n(C)c(=O)n(C)c2n1,inactive: 71%
14,COc1ccc2oc(=O)c(-c3csc(-c4ccc(Br)cc4)n3)cc2c1,inactive: 78%
15,COc1cccc(-n2cc(C(=O)NCCc3ccc(C)cc3)c3ccccc3c2=O)c1,inactive: 61%
16,O=C(NC1CC(=O)N(c2cccc(F)c2)C1)C1CCCC1 (stereo unspecified),inactive: 93%
17,Cc1c(C)c2c(cc(C)c3c(-c4ccccc4)coc32)oc1=O,inactive: 62%
18,COc1ccccc1-n1ncc2c(=O)[nH]c(SCC(=O)Nc3ccc(Cl)cc3)nc21,inactive: 95%
19,Cc1ccc(CNC(=O)c2cccn2-c2nnc(N3CCCCC3)s2)cc1,inactive: 106%

row,Compound,survival
1,COc1cc(-c2nc(Cn3nnc(C(=O)Nc4ccccc4)c3C)c(C)o2)cc(OC)c1OC,inactive: 42%
2,O=C(c1cccn1-c1nnc(N2CCCC2)s1)N1CCN(c2ccccc2)CC1,active: 25%
3,CN(C)CCN(Cc1ccccc1)S(=O)(=O)c1ccc2[nH]c(=O)ccc2c1,inactive: 95%
4,O=C(Cn1cnc2c(oc3ccccc32)c1=O)Nc1ccc(F)cc1F,inactive: 105%
5,O=C(CSc1nc2c(oc3ccccc32)c(=O)n1Cc1ccco1)Nc1ccccc1Cl,inactive: 58%
6,CCCCN(C)S(=O)(=O)c1ccc(C(=O)Nc2sc3c(c2C(N)=O)CC(C)(C)NC3(C)C)cc1,inactive: 78%
7,Cc1ccc(NC(=O)C2CC(=O)n3cnnc3N2)cc1Cl (stereo unspecified),inactive: 83%
8,CCCc1ccc(-c2ccc(C(=O)Oc3ccc(OCC)cc3)cc2)nc1,inactive: 78%
9,Cc1ccc(CCNC(=O)CS(=O)Cc2nc(-c3ccccc3C)oc2C)cc1 (stereo unspecified),inactive: 69%
10,CCN(Cc1ccccc1)C(=O)Cn1c(=O)n(-c2ccc(Cl)cc2)c(=O)c2c(C)c(C(=O)N(C)C)sc21,inactive: 98%
11,Cc1c(CCC(=O)NCc2cccc(Cl)c2)c(=O)oc2c(C)c(O)ccc12,inactive: 77%
12,COc1ccc(Nc2cc(C)c3ccccc3n2)cc1,inactive: 96%
13,CC(CNC(=O)c1ccc(CSc2nc3ccncc3n2Cc2ccccc2)cc1)c1ccccc1 (stereo unspecified),inactive: 78%
14,COc1ccc(CNC(=O)CSc2nc(-c3ccc(OC)c(OC)c3)cc(C(F)(F)F)n2)cc1,inactive: 72%
15,CN(C)S(=O)(=O)c1ccc(S(=O)(=O)N2CCC(c3nc4c(nnn4Cc4cccc(F)c4)c(=O)[nH]3)CC2)cc1,inactive: 96%
16,COc1cc(Cl)c(NS(=O)(=O)c2ccc(-c3cnc(C4CC4)o3)cc2)c(OC)c1,inactive: 74%
17,CC1CCCN(S(=O)(=O)c2ccc(S(=O)(=O)N3CCN(C=O)CC3)cc2)C1 (stereo unspecified),inactive: 100%
18,O=C(Nc1nc2ccccc2s1)c1ccc(S(=O)(=O)N2CCCC2)cc1,inactive: 99%
19,O=S(=O)(c1ccc2nc(NCc3ccccc3Cl)ccc2c1)N1CCCCC1,inactive: 72%

row,Compound,survival
1,CCOc1ccc(C2C(=O)N(C3CCCCCC3)CC(=O)N2CCc2ccc(OC)c(OC)c2)cc1OC (stereo unspecified),inactive: 87%
2,CCn1c(CNC(=O)c2ccc(OC)cc2)nnc1SCC(=O)Nc1ccc(C)cc1,inactive: 126%
3,Cc1cc2oc3c(c(=O)c2cc1C)C1(C(=O)N(C)c2ccccc21)N(CCO)C3=O (stereo unspecified),inactive: 55%
4,COc1ccc(N2CC(NC(=O)c3ccco3)CC2=O)cc1 (stereo unspecified),inactive: 58%
5,O=C(O)COCC(=O)Nc1ccc2c(c1)CCC2,inactive: 103%
6,Nc1cc(=O)nc(SCC(=O)Nc2ccc(F)cc2)n1CCc1ccccc1,inactive: 79%
7,COc1ccccc1NC(=O)C1CCN(C(=O)c2sc3nc[nH]c(=O)c3c2C)CC1,inactive: 80%
8,O=C(Nc1ccccc1Br)C(Cc1ccccc1)NS(=O)(=O)c1cccc2nsnc12 (stereo unspecified),inactive: 76%
9,CCN(CC)CCNC(=O)c1ccc2nc(CCc3ccccc3)oc2c1,inactive: 95%
10,CCOC(=O)c1cc(S(=O)(=O)N2CCN(c3ccc(C(C)=O)cc3)CC2)[nH]n1,inactive: 126%
11,COc1ccccc1N1CCN(c2cc(C)nc3nc(-c4ccc(C)cc4)nn23)CC1,active: 40%
12,O=C(NCc1ccc(F)cc1)c1ccc(Nc2nc3ccccc3n3nnnc23)cc1,inactive: 52%
13,Cc1c(C(=O)Nc2ccccc2F)sc2ncnc(N(C)C3CCCCC3)c12,active: 37%
14,CN1CCN(CCC(O)COc2ccc(OCC(O)CCN3CCN(C)CC3)cc2)CC1 (stereo unspecified),inactive: 95%
15,O=C1C(=O)N(CC2CCCO2)C(c2ccccc2)/C1=C(/O)c1ccccc1 (stereo unspecified),inactive: 94%
16,Cc1cccc(CCNC(=O)CCc2c(C)nc3c4c(C)cc(C)nc4nn3c2C)c1,inactive: 77%
17,COc1ccc(CNC(=O)Cn2ncc3c([nH]c4ccccc43)c2=O)cc1,inactive: 91%
18,Cc1nn(-c2ccc(N3CCCC3)nn2)c(C)c1CCC(=O)Nc1ccc(F)cc1F,inactive: 73%
